Data: patent US12325690B2, “Compounds for the reducing lipotoxic damage” (Mayo Foundation for Medical Education and Research, priority 2017, dated 2025)

Columns and labels:
pancreatic lysate lipase [1] = experiment: Lipase activity assay with pancreatic lysate (commercial Pointe scientific lipase assay); format: biochemical, mouse; details: freshly prepared solutions; compared with parent 741
Protocol: (§1) To test the efficacy of these compounds, the agents were dissolved as a 20 mM stock in ethanol, and further diluted to in PBS as a 600 micromolar working stock (3.3% ethanol). This was either used immediately or left at room temperature for 16-20 hours overnight before retesting efficacy. The agents were incubated with a pancreatic lysate in serial ⅓ dilutions spanning a range of 200 to 0.3 micromolars for 30 minutes. 5 microliters of these mixtures were then used to measure lipase activity using a commercial lipase assay (Pointe scientific) containing a monoacyl glycerol lipase in the reagent. The lipase assay was done using reagents in proportion to the recommended protocol. Values were depicted as % maximal lipase activity of the well without any inhibitor.

pancreatic lysate lipase [2] = biological target: T1, pancreatic lysate lipase (Mus musculus, UniProt Q6P8U6); experiment: as above; format: biochemical; details: fresh solution
T1 construct: efficacy against mouse pancreatic lysates; other: summary of strengths of 767; efficacy as a solution when left overnight; other: solution left overnight; efficacy in the lipase activity assay compared with orlistat when fresh; other: fresh solution; IC50 of orlistat after overnight incubation (nearest tested concentration); other: after overnight incubation; improvement in stability and e
T1 sequence (Q6P8U6 17-465): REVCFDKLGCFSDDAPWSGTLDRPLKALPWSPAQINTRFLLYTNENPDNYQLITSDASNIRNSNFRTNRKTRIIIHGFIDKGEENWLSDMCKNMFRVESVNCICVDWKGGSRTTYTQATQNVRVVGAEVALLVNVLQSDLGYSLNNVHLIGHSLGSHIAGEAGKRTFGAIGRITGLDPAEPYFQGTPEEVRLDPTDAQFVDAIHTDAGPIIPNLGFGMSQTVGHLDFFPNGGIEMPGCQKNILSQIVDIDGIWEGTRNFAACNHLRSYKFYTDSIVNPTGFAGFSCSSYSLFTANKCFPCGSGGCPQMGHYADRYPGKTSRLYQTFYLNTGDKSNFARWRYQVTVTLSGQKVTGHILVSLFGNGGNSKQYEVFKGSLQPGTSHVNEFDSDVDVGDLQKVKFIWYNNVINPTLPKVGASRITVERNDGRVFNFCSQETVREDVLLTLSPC
Protocol: as §1

[3] = biological target: T2, recombinant human pancreatic tri-acyl glycerol lipase [PNLIP; hPTL] (Homo sapiens, UniProt P16233); experiment: FFA generation from glyceryl trilinoleate by recombinant hPNLIP with colipase; format: biochemical; details: for IC50: solution stored overnight, with colipase, read-out: IC50 against hPNLIP when stored overnight
T2 sequence (P16233 17-465): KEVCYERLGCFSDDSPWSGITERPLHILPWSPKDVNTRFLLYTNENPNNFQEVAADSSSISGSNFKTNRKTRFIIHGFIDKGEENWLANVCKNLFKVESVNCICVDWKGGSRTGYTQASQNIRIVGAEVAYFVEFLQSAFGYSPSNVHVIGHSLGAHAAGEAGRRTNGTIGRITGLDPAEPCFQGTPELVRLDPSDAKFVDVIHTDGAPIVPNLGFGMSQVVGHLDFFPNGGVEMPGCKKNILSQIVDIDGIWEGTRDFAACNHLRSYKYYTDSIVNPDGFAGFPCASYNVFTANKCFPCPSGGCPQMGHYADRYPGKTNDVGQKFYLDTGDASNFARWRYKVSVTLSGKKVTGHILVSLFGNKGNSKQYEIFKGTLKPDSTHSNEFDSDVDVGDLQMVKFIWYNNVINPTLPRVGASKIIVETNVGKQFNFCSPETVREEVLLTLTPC
T2 sequence (P04118 23-112 partner): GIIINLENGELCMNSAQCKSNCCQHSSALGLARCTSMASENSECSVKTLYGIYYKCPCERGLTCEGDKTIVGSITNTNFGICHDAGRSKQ
Protocol: The efficacy of a selection of the prepared analogs was explored to determine their ability to inhibit free fatty acid (FFA) generation from recombinant human lipases while retaining stability. To test these features, the analogs were dissolved in ethanol (200 mM stock) and further diluted to a 600 micromolar (0.3% ethanol) working stock in PBS. The agents were incubated with the recombinant enzymes in serial ⅓ dilutions spanning a range of 200 to 0.3 micromolar for 30 minutes, and then added to the substrate 1 mM glyceryl trilinoleate (GTL) in PBS, pH 7.4 along with cofactor colipase (CLPS; 0.5 mcg/ml).

[4] = test system: Mouse pancreatic acinar cells; experiment: Toxicity study in pancreatic acinar cells (ATP levels, LDH leakage); format: cell-based; details: 4 hours, 20-200 micromolar range
Protocol: Toxicity studies of the relevant compounds were also performed using by diluting the original ethanol stock 200 mM into the incubation medium for acinar cells (HEPES buffer, pH 7.4, as described by Navina et al) 600 micromolar stock solutions of the compounds in 0.3% ethanol in PBS. These were added to acinar cells at ⅓ dilutions starting at 200 micromolar. Mouse pancreatic acinar ATP levels and LDH leakage were measured over 4 hours and compared to control. Any number positive over control indicates % injury greater than control acini.

## CCC/C=C/C/C=C/CCC(CC1OC(=O)[C@H]1CCCCCC)OC(=O)[C@H](C)NC=O (stereo partly shown) [Compound 763]
Pancreatic lysate lipase [1]
  lipase inhibition efficacy of β-chain analogs of 741: decrease in efficacy

## CCCCCCCCCCC[C@@H](C[C@@H]1OC(=O)[C@H]1COCCCC)OC(=O)[C@H](C)NC=O [Compound 768]
Pancreatic lysate lipase [2]
  efficacy in the lipase activity assay compared with orlistat when fresh: equivalent efficacy

## CCCCCCCCCCC[C@@H](C[C@@H]1OC(=O)[C@H]1CCCCCC)OC(=O)C(CCCNC=O)NC=O (stereo partly shown) [Compound 734]
[3]
  IC50: < 2000 nM

## CCCCCCCCCCC[C@@H](C[C@@H]1OC(=O)[C@H]1CCCCCC)OC(=O)[C@H](CNC=O)NC=O [Compound 733]
[3]
  IC50: < 2000 nM

## CCCCCC[C@@H]1C(=O)OC1CC(CC/C=C/COCCCC)OC(=O)[C@H](C)NC=O (stereo partly shown) [Compound 762]
Pancreatic lysate lipase [1]
  lipase inhibition efficacy of β-chain analogs of 741: decrease in efficacy

## CCCCCCCCCCC[C@@H](C[C@@H]1OC(=O)[C@H]1CCCCCC)OC(=O)[C@H](CC(=O)O)NC=O [Compound 743]
[3]
  IC50: < 2000 nM
[4]
  acinar ATP levels: drop in ATP
  toxicity to acinar cells: toxic to acinar cells

## CCCCCCCCCCC[C@@H](C[C@@H]1OC(=O)[C@H]1CCCCCC)OC(=O)[C@H](CCCNC(=N)N)NC=O [Compound 740]
[3]; retention of inhibition after overnight storage
  stability in aqueous solution: best stability
[3]
  IC50: < 2000 nM
